According to the supplement of paper PMC7826260:
Some of the results follow. Each Rep nickase domain was tested in vitro on the same pool of single strands for 1 h at 37 °C with 3 µM enzyme; only the middle of the 90-letter strands is printed. Values are log2 of uncut reads against the no-enzyme pool; uncut sequences lie near 0, cut ones below; no hit call is given. Reads are scaled to the total; uncut strands gain when others are lost, and binding without cutting may add a little.

Key:
Assay in all cases: uncleaved DNA left, log2 of reads against the no-enzyme library (log2 ratio); higher = less cleavage (more negative = more Rep cleavage of the k-mer); sequences stand for … in CTCGTCCG…ACCGGAGA
[1] = test system: T1, Rep nickase domain of Muscovy duck circovirus
T1 sequence (residues 1-111 of Rep, tag left off): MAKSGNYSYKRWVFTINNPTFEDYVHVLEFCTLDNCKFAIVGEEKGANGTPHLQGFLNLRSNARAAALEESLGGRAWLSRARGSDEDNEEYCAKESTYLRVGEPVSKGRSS
Procedure: (§1)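 A pool of 90-nt single-stranded DNAs with seven random bases just before the constant AC of the nick site (name = the seven bases) was cut by 3 µM recombinant His6-SUMO-tagged Rep nickase domain (300 nM DNA, 50 mM HEPES pH 8.0, 50 mM NaCl, 1 mM MnCl2, 1 h, 37 °C, three replicates). Uncut DNA was amplified and sequenced.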

[2] = test system: T2, Rep nickase domain of banana bunchy top virus
T2 sequence (residues 1-94 of Rep, tag left off): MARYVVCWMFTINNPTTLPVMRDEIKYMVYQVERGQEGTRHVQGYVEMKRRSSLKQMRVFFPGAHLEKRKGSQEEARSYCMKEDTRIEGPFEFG
Procedure: as §1

[3] = test system: T3, Rep nickase domain of cabbage leaf curl virus
T3 sequence (residues 1-116 of Rep, tag left off): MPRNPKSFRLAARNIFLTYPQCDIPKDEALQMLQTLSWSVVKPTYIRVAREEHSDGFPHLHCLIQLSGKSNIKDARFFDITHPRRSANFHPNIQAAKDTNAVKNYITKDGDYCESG
Procedure: as §1

[4] = test system: T4, Rep nickase domain of chickpea chlorotic dwarf virus
T4 sequence (residues 1-124 of Rep, tag left off): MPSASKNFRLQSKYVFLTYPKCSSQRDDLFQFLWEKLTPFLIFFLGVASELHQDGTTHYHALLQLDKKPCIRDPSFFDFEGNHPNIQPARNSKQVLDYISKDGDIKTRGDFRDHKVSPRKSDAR
Procedure: as §1

[5] = test system: T5, Rep nickase domain of faba bean necrotic yellows virus
T5 sequence (residues 1-98 of Rep, tag left off): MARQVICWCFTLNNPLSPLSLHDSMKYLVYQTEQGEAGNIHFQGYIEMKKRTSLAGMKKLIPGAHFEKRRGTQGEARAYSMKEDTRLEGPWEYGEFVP
Procedure: as §1

[6] = test system: T6, Rep nickase domain of maize striate mosaic virus
T6 sequence (residues 1-117 of Rep, tag left off): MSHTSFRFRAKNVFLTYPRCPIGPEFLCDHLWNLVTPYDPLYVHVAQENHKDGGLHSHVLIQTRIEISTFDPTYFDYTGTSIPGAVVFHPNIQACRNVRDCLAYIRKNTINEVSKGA
Procedure: as §1

[7] = test system: T7, Rep nickase domain of porcine circovirus 2
T7 sequence (residues 2-116 of Rep, tag left off): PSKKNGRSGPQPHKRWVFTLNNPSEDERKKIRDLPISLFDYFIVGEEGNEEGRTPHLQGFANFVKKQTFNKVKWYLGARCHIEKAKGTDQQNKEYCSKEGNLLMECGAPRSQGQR
Procedure: as §1

[8] = test system: T8, Rep nickase domain of tomato golden mosaic virus
T8 sequence (residues 1-124 of Rep, tag left off): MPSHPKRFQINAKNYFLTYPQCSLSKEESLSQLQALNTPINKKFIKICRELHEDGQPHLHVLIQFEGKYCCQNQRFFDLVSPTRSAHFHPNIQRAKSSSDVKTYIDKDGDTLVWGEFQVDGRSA
Procedure: as §1

[9] = test system: T9, Rep nickase domain of tomato yellow leaf curl virus
T9 sequence (residues 1-136 of Rep, tag left off): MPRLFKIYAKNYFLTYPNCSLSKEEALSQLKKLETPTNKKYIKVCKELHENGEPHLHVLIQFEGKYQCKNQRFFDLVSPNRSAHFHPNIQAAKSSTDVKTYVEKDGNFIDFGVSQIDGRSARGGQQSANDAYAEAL
Procedure: as §1

[10] = test system: T10, Rep nickase domain of wheat dwarf virus
T10 sequence (residues 1-137 of Rep, tag left off): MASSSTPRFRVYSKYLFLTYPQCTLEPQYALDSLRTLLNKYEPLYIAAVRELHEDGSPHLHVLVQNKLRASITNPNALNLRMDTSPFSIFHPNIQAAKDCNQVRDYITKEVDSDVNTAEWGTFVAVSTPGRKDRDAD
Procedure: as §1

| Sequence | uncleaved DNA left (log2) [1] | uncleaved DNA left (log2) [2] | uncleaved DNA left (log2) [3] | uncleaved DNA left (log2) [4] | uncleaved DNA left (log2) [5] | uncleaved DNA left (log2) [6] | uncleaved DNA left (log2) [7] | uncleaved DNA left (log2) [8] | uncleaved DNA left (log2) [9] | uncleaved DNA left (log2) [10] |
| --- | --- | --- | --- | --- | --- | --- | --- | --- | --- | --- |
| GCGCAAT | 2.07e-05 | -0.0506 | 0.0264 | 0.446 | -0.244 | 0.496 | -0.136 | -0.219 | -0.108 | -0.0511 |
| GACTATA | -0.082 | -0.0305 | 0.162 | -1.54 | -0.0665 | 0.758 | -2.26 | -0.123 | -0.131 | -0.0639 |
| TTCGATC | 0.0104 | 0.0235 | 0.374 | 0.339 | 0.0108 | -0.0354 | 0.0518 | -0.0216 | 0.077 | 0.0857 |
| CGCGAGG | 0.0269 | 0.0341 | 0.0605 | 0.715 | -0.0729 | 1.22 | 0.125 | 0.169 | -0.0007 | 0.00788 |
| TAAGAGC | 0.0353 | 0.0209 | -0.083 | -0.396 | 0.0993 | -0.997 | 0.142 | 0.0459 | -0.00778 | -0.0164 |
| ATCCTCC | 0.0939 | 0.102 | 0.178 | 0.297 | 0.11 | 0.749 | 0.143 | 0.0866 | -0.0284 | 0.167 |
| CCAAGCC | 0.045 | -0.0583 | 0.105 | 0.636 | 0.0679 | 0.651 | 0.163 | -0.134 | -0.027 | -0.064 |
| GCTTGAT | 0.0245 | -0.0912 | 0.154 | 0.512 | 0.0946 | 0.495 | -0.84 | 0.0579 | 0.0622 | 0.0255 |
| CGTTTAC | 0.0602 | 0.106 | 0.0876 | -0.867 | 0.131 | -0.229 | 0.124 | 0.0921 | 0.0612 | 0.0621 |
| AACCCGG | -0.13 | -0.0702 | 0.299 | 1.07 | -0.119 | 0.908 | -0.128 | -0.0371 | -0.167 | -0.0622 |
| TCTGTGG | -0.00861 | -0.0471 | 0.208 | 0.474 | 0.056 | 0.0977 | -0.0353 | 0.0364 | -0.0445 | -0.0536 |
| ATCGGTG | 0.0589 | -0.0976 | -0.429 | -0.364 | 0.0524 | -0.803 | 0.16 | -0.081 | 0.0407 | -0.000246 |
| ACCCTCA | 0.0529 | 0.0924 | 0.0325 | -0.774 | 0.117 | -0.192 | 0.0694 | 0.171 | 0.086 | 0.126 |
| GTCCTAA | 0.0244 | 0.218 | 0.302 | 1.04 | -0.0101 | 1.78 | 0.0124 | 0.112 | 0.06 | 0.0378 |
| GCCGCAC | 0.091 | 0.16 | 0.174 | 0.323 | 0.117 | -0.115 | 0.152 | 0.0666 | 0.0637 | 0.054 |
| AAAGGGA | -0.0228 | 0.0323 | 0.243 | 1.15 | 0.068 | 1.21 | 0.119 | 0.0524 | -0.0885 | 0.0446 |
| TTCCCAG | -0.0313 | -0.119 | -0.695 | -0.808 | -0.0754 | -1.06 | -0.0839 | -0.15 | 0.0139 | 0.0126 |
| GCCCCGG | -0.153 | -0.0845 | 0.38 | 1.16 | -0.0619 | 1.71 | 0.0337 | 0.0991 | -0.192 | -0.124 |
| AAATTGC | 0.0236 | 0.0435 | -0.653 | 0.542 | 0.128 | -0.232 | 0.167 | 0.0246 | 0.128 | -0.0123 |
| AATTGAT | -3.03 | -1.54 | 0.036 | 0.736 | -0.00994 | 1 | -3.45 | 0.0654 | -0.0245 | 0.0173 |
| TGGAGTT | 0.182 | -0.0153 | 0.564 | 0.101 | 0.119 | 1.11 | 0.0349 | 0.0678 | 0.135 | 0.21 |
| TAGCGAT | 0.117 | 0.0285 | -0.042 | 0.426 | -0.00744 | 0.539 | -1.19 | 0.128 | 0.0213 | -0.0128 |
| ACCTGGG | -0.0764 | -0.0345 | -0.563 | 0.09 | -0.0224 | -0.555 | -0.0223 | -0.0291 | -0.0231 | -0.048 |
| ACGGGAG | 0.0733 | -0.0597 | -0.635 | -0.243 | 0.0526 | -0.688 | 0.189 | 0.113 | 0.0626 | -0.135 |
| AAAAGAG | 0.0263 | 0.0597 | -0.689 | -0.479 | 0.139 | -1.03 | 0.196 | 0.0883 | 0.075 | 0.0297 |
| AACTATC | 0.0486 | -0.143 | -0.116 | -0.683 | 0.0247 | -0.8 | -2.5 | -0.0486 | 0.0358 | 0.013 |
| TATTACT | -4.35 | -4.39 | -4.06 | -4.26 | -3.69 | -2.19 | -4.71 | -3.76 | 0.0113 | -3.68 |
| CCGCGAG | 0.0145 | -0.223 | -0.265 | 0.0137 | 8.26e-05 | -0.806 | 0.0296 | -0.125 | 0.00281 | -0.0289 |
| TAGGGGA | -0.0185 | 0.0853 | 0.589 | 1.02 | 0.0763 | 1.6 | 0.15 | 0.0373 | -0.121 | 0.0915 |
| CGCCTTC | -0.00468 | -0.0271 | 0.00906 | -0.0994 | -0.0567 | -0.375 | 0.0149 | -0.129 | -0.156 | 0.0105 |
